These are yes or no findings as the source states them, for the method shown. Binding seen in cells or lysates may run through a third protein. Some entries that bind do so weakly or less than the wild type. For some of these results: Sequences can lack the tags named with a protein.

Amino acid sequences for entries named in this document (tags omitted). A change or cut given only in a name is not applied to a line headed by its entry.
UniProt P62491: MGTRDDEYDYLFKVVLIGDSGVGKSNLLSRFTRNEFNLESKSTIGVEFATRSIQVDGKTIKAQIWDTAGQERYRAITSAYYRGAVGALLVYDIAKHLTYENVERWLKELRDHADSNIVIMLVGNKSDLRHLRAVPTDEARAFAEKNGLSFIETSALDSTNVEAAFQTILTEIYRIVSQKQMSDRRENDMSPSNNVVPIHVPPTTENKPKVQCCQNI
UniProt Q96CW5: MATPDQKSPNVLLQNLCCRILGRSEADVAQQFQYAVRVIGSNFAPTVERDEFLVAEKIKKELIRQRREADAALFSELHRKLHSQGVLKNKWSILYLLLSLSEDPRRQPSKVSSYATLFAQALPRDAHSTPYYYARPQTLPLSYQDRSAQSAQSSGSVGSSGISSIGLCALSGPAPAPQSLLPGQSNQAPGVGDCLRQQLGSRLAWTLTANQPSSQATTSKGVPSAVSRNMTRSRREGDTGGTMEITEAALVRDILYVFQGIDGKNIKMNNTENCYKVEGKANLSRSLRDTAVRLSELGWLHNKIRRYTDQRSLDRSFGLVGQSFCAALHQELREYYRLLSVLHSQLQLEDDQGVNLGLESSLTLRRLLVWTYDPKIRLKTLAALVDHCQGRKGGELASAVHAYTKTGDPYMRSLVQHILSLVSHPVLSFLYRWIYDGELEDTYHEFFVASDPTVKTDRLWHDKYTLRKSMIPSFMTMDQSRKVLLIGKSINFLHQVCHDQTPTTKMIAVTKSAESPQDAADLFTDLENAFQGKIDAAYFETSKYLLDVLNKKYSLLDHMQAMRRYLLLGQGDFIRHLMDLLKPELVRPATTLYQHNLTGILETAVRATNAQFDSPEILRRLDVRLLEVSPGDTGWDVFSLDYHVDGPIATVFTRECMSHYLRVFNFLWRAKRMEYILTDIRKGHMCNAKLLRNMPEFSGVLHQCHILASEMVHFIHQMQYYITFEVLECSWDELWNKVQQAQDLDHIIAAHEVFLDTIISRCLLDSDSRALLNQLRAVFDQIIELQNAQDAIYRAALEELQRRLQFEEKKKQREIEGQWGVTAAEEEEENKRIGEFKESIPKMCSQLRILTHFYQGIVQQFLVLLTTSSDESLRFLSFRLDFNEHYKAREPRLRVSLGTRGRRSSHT
UniProt O15078: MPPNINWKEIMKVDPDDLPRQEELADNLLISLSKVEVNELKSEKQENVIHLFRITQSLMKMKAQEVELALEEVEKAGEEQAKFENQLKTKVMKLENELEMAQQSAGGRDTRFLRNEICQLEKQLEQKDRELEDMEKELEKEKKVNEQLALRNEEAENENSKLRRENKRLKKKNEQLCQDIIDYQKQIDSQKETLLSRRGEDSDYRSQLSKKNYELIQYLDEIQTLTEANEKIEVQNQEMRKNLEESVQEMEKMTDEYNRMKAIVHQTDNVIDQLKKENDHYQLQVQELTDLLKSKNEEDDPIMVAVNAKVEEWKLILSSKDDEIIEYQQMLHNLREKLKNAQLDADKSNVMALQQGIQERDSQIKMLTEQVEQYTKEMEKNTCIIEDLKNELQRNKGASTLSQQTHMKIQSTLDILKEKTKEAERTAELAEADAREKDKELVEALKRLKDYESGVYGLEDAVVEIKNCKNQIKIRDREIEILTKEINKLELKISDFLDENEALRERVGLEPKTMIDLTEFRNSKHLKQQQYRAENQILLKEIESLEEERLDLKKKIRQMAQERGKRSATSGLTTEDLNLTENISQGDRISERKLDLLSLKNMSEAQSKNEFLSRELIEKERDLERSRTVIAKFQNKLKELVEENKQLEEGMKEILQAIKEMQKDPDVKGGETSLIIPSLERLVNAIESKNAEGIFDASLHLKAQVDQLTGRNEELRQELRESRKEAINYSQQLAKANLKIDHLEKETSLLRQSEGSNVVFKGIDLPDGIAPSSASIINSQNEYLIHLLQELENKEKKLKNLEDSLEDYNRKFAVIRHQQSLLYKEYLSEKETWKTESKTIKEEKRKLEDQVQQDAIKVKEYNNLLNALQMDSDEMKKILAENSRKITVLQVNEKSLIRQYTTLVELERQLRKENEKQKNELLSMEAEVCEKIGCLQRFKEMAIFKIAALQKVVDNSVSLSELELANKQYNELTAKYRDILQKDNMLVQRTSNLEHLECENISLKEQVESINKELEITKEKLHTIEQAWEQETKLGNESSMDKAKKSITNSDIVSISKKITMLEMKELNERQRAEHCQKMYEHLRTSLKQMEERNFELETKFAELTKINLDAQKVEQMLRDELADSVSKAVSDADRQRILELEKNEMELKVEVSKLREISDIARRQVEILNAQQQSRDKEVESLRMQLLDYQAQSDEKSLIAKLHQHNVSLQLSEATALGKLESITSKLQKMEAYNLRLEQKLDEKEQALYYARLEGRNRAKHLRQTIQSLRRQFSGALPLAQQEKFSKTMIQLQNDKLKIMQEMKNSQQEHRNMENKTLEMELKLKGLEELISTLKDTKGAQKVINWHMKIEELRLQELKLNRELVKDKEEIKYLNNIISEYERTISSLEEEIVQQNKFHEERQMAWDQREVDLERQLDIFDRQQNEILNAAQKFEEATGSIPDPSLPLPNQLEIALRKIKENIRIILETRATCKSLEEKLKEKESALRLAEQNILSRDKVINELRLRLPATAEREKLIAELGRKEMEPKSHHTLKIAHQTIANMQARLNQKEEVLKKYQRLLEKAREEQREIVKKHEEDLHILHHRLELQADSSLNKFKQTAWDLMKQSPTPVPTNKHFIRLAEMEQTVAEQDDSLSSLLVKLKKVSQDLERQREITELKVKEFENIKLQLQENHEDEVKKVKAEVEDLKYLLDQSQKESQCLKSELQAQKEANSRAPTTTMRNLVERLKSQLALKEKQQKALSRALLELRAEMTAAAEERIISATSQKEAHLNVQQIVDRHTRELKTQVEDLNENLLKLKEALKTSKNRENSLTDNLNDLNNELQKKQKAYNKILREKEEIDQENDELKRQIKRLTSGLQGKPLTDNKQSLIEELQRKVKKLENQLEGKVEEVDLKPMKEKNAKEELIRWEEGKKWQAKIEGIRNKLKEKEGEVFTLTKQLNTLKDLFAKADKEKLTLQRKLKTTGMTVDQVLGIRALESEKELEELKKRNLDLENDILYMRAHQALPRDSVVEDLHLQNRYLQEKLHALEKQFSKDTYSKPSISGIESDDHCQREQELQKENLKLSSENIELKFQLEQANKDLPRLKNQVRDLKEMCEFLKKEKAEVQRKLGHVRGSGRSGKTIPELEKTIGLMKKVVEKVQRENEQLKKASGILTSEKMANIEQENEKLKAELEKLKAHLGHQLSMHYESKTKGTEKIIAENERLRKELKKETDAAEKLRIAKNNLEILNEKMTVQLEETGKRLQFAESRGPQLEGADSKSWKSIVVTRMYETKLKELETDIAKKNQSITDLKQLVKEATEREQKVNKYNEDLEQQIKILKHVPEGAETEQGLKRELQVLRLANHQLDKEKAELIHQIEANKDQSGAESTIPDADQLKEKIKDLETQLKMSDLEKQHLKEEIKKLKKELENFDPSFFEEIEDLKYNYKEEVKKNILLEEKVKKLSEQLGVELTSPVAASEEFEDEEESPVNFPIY

Binding data for 7 molecules are collected here from article PMC10516600.

For assay [1], the target named is T1, CRB3 (endogenous, MCF10A cells) (human (endogenous in MCF10A)) (UniProt Q9BUF7).
T1 sequence: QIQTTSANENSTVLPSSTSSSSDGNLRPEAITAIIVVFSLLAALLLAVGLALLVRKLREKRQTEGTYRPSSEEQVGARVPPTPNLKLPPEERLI
In words: co-IP; endogenous proteins in MCF10A lysate (NP40 buffer), Dynabeads protein G kit, immunoblot; baits CRB3, Rab11 or GCP6; control shRNA and CRB3 knockdown cells.

Assay [2] deals with T2, exogenous CRB3b (CRB3-GFP) stably expressed in MCF10A cells (human) (UniProt Q9BUF7).
T2 sequence: T1 sequence
In words: co-IP; MCF10A cells expressing exogenous CRB3b (CRB3-GFP); lysate in NP40 buffer, Dynabeads protein G kit, immunoblot; baits exogenous CRB3b or Rab11. On the technique in general: Immunoblotting shows a protein as a band on a membrane.

A further assay addresses Flag-Rab11a (wild type) (UniProt P62491). Kind of assay: co-IP; Flag antibody co-IP from HEK293 cells cotransfected for 48 hr with CRB3b-GFP constructs and Flag-Rab11a variants; immunoblot with GFP and Flag antibodies.
The next assay concerns the target Flag-Rab11a[Q70L] (UniProt P62491). The description is as above.
The next assay has as its target Flag-Rab11a[S20V] (UniProt P62491). The description is as above.
In another assay the target is Flag-Rab11a[S25N] (UniProt P62491). The assay is described as above.

For “GCP3 (endogenous, MCF10A cells) (from UniProt Q96CW5 1-907)”, the binding result in assay [1] is reported as “no binding”.
Consider “CEP290 (endogenous, MCF10A cells) (from UniProt O15078 1-2479)”, for which the binding result in assay [2] is recorded as “binds”.
As for QIQTTSANENSTVLPSSTSSSSDGNLRPEAIT (domain or fragment, UniProt Q9BUF7 27-58) [CRB3 (1–58) GFP fusion], the binding result with Flag-Rab11a (wild type) is “binds”.
Take MANPGLGLLLALGLPFLLARWGRAWG (domain or fragment, UniProt Q9BUF7 1-26) [CRB3 (1–26) GFP fusion]: the binding entry in the assay with Flag-Rab11a (wild type) is on record as “no binding”.

B1: CRB3 (1–116) GFP fusion (domain or fragment, UniProt Q9BUF7 27-116)
chain: QIQTTSANENSTVLPSSTSSSSDGNLRPEAITAIIVVFSLLAALLLAVGLALLVRKLREKRQTEGTYRPSSEEQVGARVPPTPNLKLPPE
With B1, in the assay with Flag-Rab11a (wild type), the binding result is “binds”.

B2: full-length CRB3b-GFP (1–120), expressed in HEK293 cells (protein, UniProt Q9BUF7 27-120)
chain: T1 sequence
As to B2, the binding entry with Flag-Rab11a (wild type) was “binds”; with Flag-Rab11a[Q70L], “binds”; in the assay with Flag-Rab11a[S20V] it was “binds”; with Flag-Rab11a[S25N], “binds weakly”.

B3: CRB3 (1–83) GFP fusion (domain or fragment, UniProt Q9BUF7 27-83)
chain: QIQTTSANENSTVLPSSTSSSSDGNLRPEAITAIIVVFSLLAALLLAVGLALLVRKL
Regarding B3, the binding result in the assay with Flag-Rab11a (wild type) is “binds”.
